The full ranking holds about 81,000 sequences; the median of “one-hybrid fitness for binding parS DNA” is about -0.17, and the highest 2% start at about 0.51. Some of the results follow.
B1: Caulobacter ParB omega fusion; a variant is named by its letters at X, in order, B8GW30 (parent)
chain: MESVVVGEPGMSEGRRGLGRGLSALLGEVDAAPAQAPGEQLGGSREAPIEILQRNPDQPRRTFREEDLEDLSNSIREKGVLQPILVRPSPDTAGEYQIVAGERAWRAAQRAGLKTVPIMVRELDDLAVLEIGIIENVQRADLNVLEEALSYKVLMEKFERTQENIAQTIGKSXSHVANXMRLLXLPDEVQSYLVSGELTAXHARAIAAAADPVALAKQIIEGGLSVRETEALARKAPNLSAGKSKGGRPPRVKDTDTQALESDLSSVLGLDVSIDHRGSTGTLTITYATLEQLDDLCNRLTRGI

Variants of: B1
Assay: one-hybrid fitness for binding parS DNA (scaled: cognate 1, non-cognate 0); higher = stronger binding
Conditions: with parS DNA site
Outline: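 Selection: bacterial one-hybrid in E. coli USO, HIS3 reporter with the site 19 bp from the promoter, 48 hours at 37°C on M9-minus-histidine plus 0.1 mM IPTG and 5 mM 3-AT. Libraries were Caulobacter ParB with four randomised specificity codons, sequenced on Illumina before and after selection. Fitness is the rescaled log change in variant-to-wild-type read ratio, anchored to the cognate and non-cognate sites.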

one-hybrid fitness for binding parS DNA, 0.703:
RVIT

one-hybrid fitness for binding parS DNA, 0.404:
RFCY

one-hybrid fitness for binding parS DNA, 0.464:
RVFY

one-hybrid fitness for binding parS DNA, 0.958:
RSQC

one-hybrid fitness for binding parS DNA, 0.806:
RHYT

one-hybrid fitness for binding parS DNA, 0.24:
RLHW

one-hybrid fitness for binding parS DNA, 0.211:
RALH

one-hybrid fitness for binding parS DNA, 0.691:
RWFS

one-hybrid fitness for binding parS DNA, 0.882:
RFGC

one-hybrid fitness for binding parS DNA, ≤ 0.2:
GLIS
ELPS
DEDC
AAGN
MQDW
GFRC
VEFL
ATCK
HPTL
DGAC
AMHR
CCFG
VRVM
YRWC
MIEG
ERSA
QLGI
QRAP
SWYR
VHSR
FVDL
FMVL
MLKE
KRTQ
YTSC
PNRN
AEDR
SPLN
VPER
YLHP
TGYR
SSQT
GTYD
TTDA
YMVS
TDSR
HLNP
FKSM
DSTF
ASPM
AAGW
YPNP
NADG
QSCW
AFYK
YPPP
DDNT
LEQL
LDVG
KYRI
HEGI
GPRD
LCDG
SQTW
KGTM
DTNW
TTEQ
APVL
MTAR
QSSV
QLWA
TSQM
HGSF
NKPT
VYCL
WIQS
KSYI
TYQL
AHYT
RLHR
TPDV
GEQC
QGRL
GPGC
KILC
LMFR
TRCY
DVDG
SFSR
RHDE
AWMN
QKML
WRLG
RTIQ
GFYM
RPFF
CMLD
SKSD
SPDI
LHWS
QVIS
SLWG
VQIT
PQPM
TVPM
SPFS
ACCI
VGLN
QRAW
QSAM
HTHE
QHNQ
RPLT
WQHT
GRSA
ELPV
EGMC
VYMS
QRGL
HIYS
RYEH
GRKW
QESV
TGTW
TCPW
LESA
HDRS
QWTG
WLRI
QSYH
QSEI
IHAR
HTPS
YRPF
TQPN
PSKR
QTSN
TPNI
ANLP
LAKR
TSKS
NPDA
SCAN
NYRY
CYQR
LTFS
SPLD
HLLN
VFNC
WTER
QFTL
PFGT
LCLW
RGDY
ACLN
WLEL
FMTG
GWKC
ALTR
DDCG
VAMS
WNSS
SIGC
LVNL
AAPD
LCRP
ETTD
TRDK
INDL
TRVT
PRHE
SWRD
NDPS
ADLS
LKTE
PYIH
MLRC
FTKM
HDLI
TIWT
WNHF
HRSQ
QAFL
VSRD
QKCA
APEG
RMPP
LDKS
IDVL
EDTE
YPPG
YHHG
LPML
EHVR
CTVT
TPDC
QGTL
NMVT
KNKV
QNPQ
CTTC
NCIS
FQHT
TEVM
VPNS
WKKA
HHMF
WRSC
CKHG
NAGG
ITLV
QHQM
WFDG
AVRS
AYQC
HRSW
RRDD
VTVC
KPHC
KHSS
WMIS
RVLI
SGMG
SAHS
GRTA
TDSL
AQSF
LYCN
VRTV
MPMS
EKLC
MSPS
YTLR
DLDG
NGAM
LRPV
DLKG
PWHR
QADR
VSFT
GELC
QQNY
SILF
CMQA
PLCG
EESF
KFTN
TQRF
KTTF
PDPF
LIQM
RWAI
RLIK
VSIE
SISR
NTNT
DYNA
SYRF
HQTC
TRTF
FRPN
KTAV
LTSR
PCKA
QQDE
IGVG
ITMG
ASNW
RQED
SYRA
ANLE
THPP
HRTY
PFMC
QVGH
RHNV
GTCT
CRAI
DLYG
GVMS
TLCY
NSCT
LGLP
GAAE
GKGN
GRGS
KCPC
QCMF
CEHG
FKLF
HPVN
QITH
TWRT
CFAL
MNPV
QRIW
TWPM
YDSP
YLCG
QFNR
GIDC
PRYP

one-hybrid fitness for binding parS DNA, 0.205:
RYGF

one-hybrid fitness for binding parS DNA, 0.825:
RKQC

one-hybrid fitness for binding parS DNA, 0.96:
RMVC

one-hybrid fitness for binding parS DNA, 0.91:
RYKG

one-hybrid fitness for binding parS DNA, 0.213:
RIME
